# Screen size: about 310,000 compounds; about 14,000 (4.5%) showed an effect of 50% or more. The effect is printed as a negative number. This is one part of the list.
# Target: human ether-à-go-go-related gene (hERG) potassium channel (human, UniProt Q12809)
# Assay: primary screen, population patch clamp on CHO cells stably expressing hERG
# 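Also: peak tail current of the secondary pulse compared with the same well before compound.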
# human ether-à-go-go-related gene (hERG) potassium channel, sequence (Q12809 whole entry, looked up): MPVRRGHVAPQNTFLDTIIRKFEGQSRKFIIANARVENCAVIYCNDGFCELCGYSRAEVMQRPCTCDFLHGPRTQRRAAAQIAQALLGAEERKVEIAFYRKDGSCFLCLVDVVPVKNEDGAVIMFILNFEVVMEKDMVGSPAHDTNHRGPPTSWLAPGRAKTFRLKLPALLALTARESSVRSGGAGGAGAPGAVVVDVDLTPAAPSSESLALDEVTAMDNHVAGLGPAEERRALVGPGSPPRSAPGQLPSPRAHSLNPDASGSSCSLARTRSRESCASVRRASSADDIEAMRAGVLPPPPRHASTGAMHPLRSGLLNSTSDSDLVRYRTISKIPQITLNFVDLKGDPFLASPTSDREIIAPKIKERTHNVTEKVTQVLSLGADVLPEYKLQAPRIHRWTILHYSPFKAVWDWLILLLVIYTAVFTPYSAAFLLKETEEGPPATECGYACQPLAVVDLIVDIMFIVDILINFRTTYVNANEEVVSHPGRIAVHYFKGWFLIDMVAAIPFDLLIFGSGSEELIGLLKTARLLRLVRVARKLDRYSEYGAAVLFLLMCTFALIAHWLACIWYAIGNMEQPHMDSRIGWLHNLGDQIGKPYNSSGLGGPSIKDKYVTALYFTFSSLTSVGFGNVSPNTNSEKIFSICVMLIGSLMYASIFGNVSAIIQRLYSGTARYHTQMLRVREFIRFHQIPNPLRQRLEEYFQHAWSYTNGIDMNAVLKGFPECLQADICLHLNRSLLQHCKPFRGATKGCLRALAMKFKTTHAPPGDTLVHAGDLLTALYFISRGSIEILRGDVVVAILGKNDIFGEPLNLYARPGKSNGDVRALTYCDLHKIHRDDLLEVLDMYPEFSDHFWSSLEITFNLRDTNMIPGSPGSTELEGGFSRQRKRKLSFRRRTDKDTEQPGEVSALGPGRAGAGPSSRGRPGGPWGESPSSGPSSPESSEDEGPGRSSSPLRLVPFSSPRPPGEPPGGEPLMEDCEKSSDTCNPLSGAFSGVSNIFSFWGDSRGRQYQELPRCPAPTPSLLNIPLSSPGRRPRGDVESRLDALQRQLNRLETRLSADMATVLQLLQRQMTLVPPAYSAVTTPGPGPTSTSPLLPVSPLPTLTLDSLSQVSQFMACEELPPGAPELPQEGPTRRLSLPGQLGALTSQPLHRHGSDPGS
row,Structure (SMILES),"hERG current change (%, negative = inhibition) at 10uM"
1,COC(=O)c1ccccc1NC(=O)CCCCCn1nnc2ccccc2c1=O,-4.46%
2,COc1cc(OC)cc(C(=O)N/N=C/c2ccc(OC)c(COc3ccc4ccccc4c3)c2)c1,15.1%
3,O=C(Nc1cccc2ncccc12)C(c1ccccc1)c1ccccc1,-20.5%
4,O=S1(=O)N=C(N2CCc3ccccc3C2)c2ccccc21,-39%
5,COc1ccc(C(CC(=O)O)NC(=O)c2sc3ccccc3c2Cl)cc1 (stereo not shown),15.6%
6,C=CCSc1nc2ccccc2c(=O)n1C1CCOC(C)(C)C1 (stereo not shown),-11%
7,O=c1c2cc(N3CCOCC3)ccc2[nH]c(=S)n1CCCN1CCN(c2ccccc2F)CC1,-9.29%
8,CC(C(=O)N1CCc2ccccc21)N1CCN(Cc2ccccc2)CC1 (stereo not shown),-34%
9,CC(C)C(c1nnnn1Cc1ccco1)N1CCN(c2cccc(Cl)c2)CC1 (stereo not shown),-2.44%
10,Cc1ccc(Cl)cc1NC(=O)CCn1cccc1,4.25%
11,O=C(NNC(=O)c1ccc(-n2cncn2)c([N+](=O)[O-])c1)c1ccccc1,9.34%
12,COc1ccc(CCNCc2ccsc2)cc1OC,1.86%
13,COc1ccc(CC(=O)n2[nH]c(=O)cc(C)c2=O)cc1OC,-1.22%
14,CCSC1=C(C#N)C(c2ccc(C)s2)CC(=O)N1 (stereo not shown),-4.59%
15,O=c1c2ccccc2c(-c2ccccc2)nn1Cc1ccc(Cl)cc1,17.1%
16,C#CCSc1nc(=O)c2cccnc2n1-c1ccc(C)cc1,-27.9%
17,COc1cc(/C=C/C(=O)NCCn2c(C)cc3ccccc32)cc(OC)c1OC,-20.1%
18,C/C(=C\C(=O)c1ccc(C)cc1)NCc1ccc(F)cc1,-5.59%
19,NCCc1cnc[nH]1,3.74%
20,CSCCC(NC(=O)c1ccccc1)C(=O)OCC(=O)c1ccc[nH]1 (stereo not shown),-11.6%
21,CCc1cc(C(=O)NC2CCCc3c2cnn3-c2cccc(C)c2C)n(C)n1 (stereo not shown),5.44%
22,CC(C)Sc1nc2sc3c(c2c2nnc(SCC(=O)NCc4ccco4)n12)CCCC3,-13.3%

row,Structure (SMILES),"hERG current change (%, negative = inhibition) at 10uM"
1,COc1ccc(NC(=O)C2CCC(CNC(=O)[C@@H]3Cc4ccccc4CN3)CC2)cc1 (stereo partly shown),-0.295%
2,NC(=O)Cc1ccc(C(=O)c2ccccc2F)s1,9.26%
3,Cn1cc(CNC(=O)C2CCC(=O)N(Cc3cccc(C(F)(F)F)c3)C2)cn1 (stereo not shown),7.63%
4,CC(C)c1ccc(NC2CCCN(C(=O)c3cnsn3)C2)cc1 (stereo not shown),4.09%
5,NC(=O)c1ccsc1NC(=O)COC(=O)Cc1n[nH]c(=O)c2ccccc12,24.2%
6,Clc1ccc(SCCn2cncn2)cc1,-9.13%
7,Cc1cc(CNC(=O)C(C)Cc2ccccc2)nn1C (stereo not shown),4.57%
8,S=C(NN=C1CCCCCC1)Nc1ccc(Cl)cc1,2.53%
9,Fc1cccc(-c2c(-c3ccccc3)ncc3cc(F)ccc23)c1,22.9%
10,CCn1cc(CN2CCN(C)C(CCO)C2)c2ccccc21 (stereo not shown),1.8%
11,Cn1c(=O)c2c(ncn2CCCl)n(C)c1=O,12.1%
12,O=C(N/N=C/c1ccc(-c2cccc([N+](=O)[O-])c2)o1)c1ccccc1O,7.58%
13,NC(=O)CC[C@@H]1NC(=O)[C@H](CO)NC(=O)c2cc([N+](=O)[O-])cc(I)c2NCCC[C@@H](C(N)=O)NC(=O)[C@H](Cc2ccc(O)cc2)NC1=O,-12.7%
14,NC(=O)COc1ccc(=O)n(-c2ccccc2)n1,0.159%
15,N#CCSc1nccc(-c2cc(Cl)sc2Cl)n1,-0.951%
16,COc1ccc(C(=O)OC2CCN(c3ncc(C(F)(F)F)cc3Cl)CC2)cc1,0.443%
17,Cc1cccc(CC(=O)N2CCC(N3CCC(C(=O)N4CCOCC4)CC3)CC2)c1,0.701%
18,O=C(NCCNC(=O)c1cc(OCC(F)(F)F)ccc1OCC(F)(F)F)Nc1ccccc1,-35.2%
19,COc1ccc(CNC(=S)N2CCN(S(=O)(=O)c3cccc(F)c3)CC2)cc1,-7.9%
20,Oc1ccccc1/C=N/NC(=S)NCCc1ccccc1,19.7%
21,CSCC[C@H](NC(=O)N1CCn2c1nc1ccccc12)C(=O)N[C@H](Cc1ccccc1)C(=O)O,4.8%
22,CC(C)NC(=O)Cn1nnc(-c2ccc(Cl)cc2)n1,4.9%

row,Structure (SMILES),"hERG current change (%, negative = inhibition) at 10uM"
1,Cc1cccc(N2CCN(C(=O)c3cnn4c(C(F)F)cc(-c5ccccc5)nc34)CC2)c1C,-3.42%
2,COc1ccc2oc(C(=O)Nc3nc(C)cs3)c(C)c2c1,11.2%
3,OC1(c2ccc(OC(F)F)cc2)CSC(=Nc2cccnc2)N1C1CC1 (stereo not shown),-34.2%
4,O=C(Nc1ccc(-n2ccnc2P(=O)(O)c2ccccc2)cc1)c1ccccc1Cl,3.26%
5,CN(C)c1nc2sc3c(c2c(=O)n1C)CC(C)(C)OC3,18.2%
6,CCCN1CCN(CCCNC(=O)C2CCCN(c3nnc(-n4cccc4)s3)C2)CC1 (stereo not shown),-10.4%
7,Cc1ccc(C(CNS(=O)(=O)c2ccccc2)N2CCN(C)CC2)cc1 (stereo not shown),-53.6%
8,Cc1onc(-c2ccccc2Cl)c1C(=O)Nc1ccc(-c2cn3cccnc3n2)cc1,26%
9,O=C(O)/C=C/C(=O)Nc1ccc(OCc2ccccc2)cc1,8.53%
10,COc1ccc(CNC(=O)CSc2nc(-c3ccccc3)cc(-c3cccs3)c2C#N)cc1,-2.25%
11,CCOC(=O)C1(CCCc2ccccc2)CCN(C(=O)CN2C(=O)CSC2=O)CC1,-4.63%
12,Cc1nc2cc(C(=O)NCCN3CCOCC3)ccc2n1-c1ccc(F)cc1F,-3.86%
13,Cn1c(=O)c2c(nc(CN3CCc4ccccc4C3)n2Cc2ccccc2F)n(C)c1=O,-12.2%
14,COC(=O)c1cc2c(C)cc3ccc(C)cn3c-2c1C(=O)OC,3.3%
15,Cc1[nH]c2ccccc2c1C(c1ccccn1)c1c(C)[nH]c2ccccc12,1.02%
16,O=C(CN1CCN(Cc2ccccc2)CC1)N/N=C/C=C/c1ccco1,-47.2%
17,O=C(Cn1cnc2ccccc21)N/N=C/C(Br)=C/c1ccccc1,5.98%
18,N/C(=N\OC(=O)c1ccc2ccccc2c1)c1ccncc1,-38.4%
19,O=C(N/N=C/c1ccc(Cl)cc1)c1cc(-c2cccnc2)nc2ccccc12,-1.68%
20,COc1ccccc1C(=O)N/N=C(\C)c1ccc(NC(=O)Cc2ccccc2)cc1,14.9%
21,Cc1ccc(NC(=O)C2CCCO2)c(Br)c1 (stereo not shown),-0.0778%
22,C=CCOc1cccc(CNn2nnnc2N)c1,19.4%

row,Structure (SMILES),"hERG current change (%, negative = inhibition) at 10uM"
1,CC(=O)CC1OC(=O)C(Br)=C1NCc1ccccc1 (stereo not shown),-9.26%
2,COc1ccc(COc2cc(-c3cccc(OC)c3)nc3ccc(NC(=O)c4ccccc4)cc23)cc1,25.2%
3,CNC(=O)NCCN1CCCC1=O,7.98%
4,CSCCC(NC(=O)COc1ccccc1)C(=O)N1CCCCC1 (stereo not shown),-11.8%
5,COc1ccc(NC(=O)C(=O)NNC(=O)COc2ccc(OC)cc2)cc1,18.7%
6,Cc1ccc2nc3c(cc(C(=O)NCCc4ccccc4)c(=N)n3CCCN3CCOCC3)c(=O)n2c1,-80.6%
7,CC(=O)N1CCN(CC(=O)Nc2c(Cl)cccc2Cl)CC1.O=C(O)C(=O)O,3.57%
8,COc1cc(S(=O)(=O)N2CCN(c3ccccn3)CC2)ccc1Br,-3.95%
9,COc1ccc(OC)c(CCNC(=O)Cn2nc(C)c3c(C)n(-c4ccccc4)nc3c2=O)c1,5%
10,Brc1ccc(N=C(c2ccccc2)c2ccncc2)cc1,4.96%
11,O=[N+]([O-])c1cc(/C=N/N2CCCCC2)ccc1Cl,6.8%
12,COC(=O)C1C(c2ccccc2)C(C(=O)O)C1c1ccccc1 (stereo not shown),25.3%
13,COc1ccccc1C(=O)NCCC(=O)NNC(=O)C1COc2ccccc2O1 (stereo not shown),-4.55%
14,CC1Cc2ccccc2N1C(=O)CN1CCC(C(N)=O)CC1 (stereo not shown),-21.2%
15,C=CCOc1ccc(/C=C(\C#N)C(=O)Nc2ccccn2)cc1,8.12%
16,CC(=O)c1ccc(N(C(=O)CNC(=O)c2ccco2)C(C(=O)NC2CCCC2)c2cccnc2)cc1 (stereo not shown),5.51%
17,CCn1nc(C)c(CN2CCCC(CNS(=O)(=O)c3ccc(OC)cc3)C2)c1C (stereo not shown),-14.7%
18,Cc1ccc(OCC(=O)Nc2ccc(S(=O)(=O)Nc3cc(C)nc(C)n3)cc2)c(C)c1,-21.2%
19,Cc1ccccc1C(=O)Nc1ccccc1C(=O)N/N=C\c1ccco1,2.6%
20,O=C(CCN1C(=O)CSc2ccccc21)Nc1ccc(OC(F)(F)F)cc1,-31%
21,O=C(NCc1ccco1)c1cnc2sccn2c1=O,7.4%
22,CCCCn1c(N)c(N(CC(C)C)C(=O)CN(C)S(=O)(=O)c2ccc(F)cc2)c(=O)[nH]c1=O,-13.5%
